From PMC4274898
Results are given in words; binding and its absence hold for the method and conditions named. Some entries that bind do so weakly or less than the wild type.

T1: ARF7 (Arabidopsis thaliana) (UniProt P93022)
T1 sequence: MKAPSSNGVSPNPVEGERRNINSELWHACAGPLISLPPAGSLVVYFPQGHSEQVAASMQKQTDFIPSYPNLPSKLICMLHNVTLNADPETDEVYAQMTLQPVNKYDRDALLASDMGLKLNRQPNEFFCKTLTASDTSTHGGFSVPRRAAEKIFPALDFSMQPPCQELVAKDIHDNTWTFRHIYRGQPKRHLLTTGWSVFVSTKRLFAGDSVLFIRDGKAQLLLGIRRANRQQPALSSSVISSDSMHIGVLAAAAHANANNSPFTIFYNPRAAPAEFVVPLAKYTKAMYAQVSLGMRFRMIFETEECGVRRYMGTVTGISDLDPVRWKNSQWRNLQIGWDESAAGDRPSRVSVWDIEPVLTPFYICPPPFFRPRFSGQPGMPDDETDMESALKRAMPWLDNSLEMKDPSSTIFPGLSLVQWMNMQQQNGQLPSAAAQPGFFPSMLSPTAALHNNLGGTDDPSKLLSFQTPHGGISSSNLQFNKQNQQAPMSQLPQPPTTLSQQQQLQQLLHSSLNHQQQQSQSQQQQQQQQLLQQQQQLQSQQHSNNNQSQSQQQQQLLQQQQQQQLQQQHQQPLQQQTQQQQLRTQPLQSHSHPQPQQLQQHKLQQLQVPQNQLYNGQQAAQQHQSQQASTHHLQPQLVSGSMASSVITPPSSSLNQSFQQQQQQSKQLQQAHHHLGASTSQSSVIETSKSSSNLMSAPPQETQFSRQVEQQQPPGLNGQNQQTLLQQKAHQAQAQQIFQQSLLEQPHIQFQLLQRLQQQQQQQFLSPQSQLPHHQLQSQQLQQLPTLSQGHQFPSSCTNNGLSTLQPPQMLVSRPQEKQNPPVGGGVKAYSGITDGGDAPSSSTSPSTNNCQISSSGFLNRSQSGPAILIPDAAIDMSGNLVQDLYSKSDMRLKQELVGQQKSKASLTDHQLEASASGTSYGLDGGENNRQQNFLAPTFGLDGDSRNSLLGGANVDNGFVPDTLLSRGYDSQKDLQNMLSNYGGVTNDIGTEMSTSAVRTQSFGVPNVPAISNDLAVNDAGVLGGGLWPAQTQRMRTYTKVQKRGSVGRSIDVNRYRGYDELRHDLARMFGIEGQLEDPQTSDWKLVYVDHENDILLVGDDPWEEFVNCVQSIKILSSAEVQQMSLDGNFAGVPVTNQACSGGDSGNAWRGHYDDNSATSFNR

T2: ARF12 (Arabidopsis thaliana) (UniProt Q9XID4)
T2 sequence: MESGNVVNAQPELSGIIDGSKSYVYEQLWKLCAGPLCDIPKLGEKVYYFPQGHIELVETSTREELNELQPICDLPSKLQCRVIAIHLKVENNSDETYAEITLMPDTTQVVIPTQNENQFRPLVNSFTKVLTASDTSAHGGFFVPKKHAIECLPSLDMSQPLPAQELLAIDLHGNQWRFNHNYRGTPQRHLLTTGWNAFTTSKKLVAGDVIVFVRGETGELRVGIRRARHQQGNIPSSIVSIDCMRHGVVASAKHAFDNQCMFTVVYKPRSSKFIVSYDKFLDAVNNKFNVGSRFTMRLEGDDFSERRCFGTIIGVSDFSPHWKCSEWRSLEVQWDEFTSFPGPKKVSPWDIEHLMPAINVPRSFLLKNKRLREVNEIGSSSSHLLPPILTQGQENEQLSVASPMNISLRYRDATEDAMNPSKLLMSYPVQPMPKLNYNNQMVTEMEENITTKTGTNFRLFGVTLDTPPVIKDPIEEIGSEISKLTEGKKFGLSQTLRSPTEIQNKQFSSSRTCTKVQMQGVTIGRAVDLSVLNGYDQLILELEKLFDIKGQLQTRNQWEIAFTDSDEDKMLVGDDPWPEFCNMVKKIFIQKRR

T3: ARF3 (Arabidopsis thaliana) (UniProt O23661)
T3 sequence: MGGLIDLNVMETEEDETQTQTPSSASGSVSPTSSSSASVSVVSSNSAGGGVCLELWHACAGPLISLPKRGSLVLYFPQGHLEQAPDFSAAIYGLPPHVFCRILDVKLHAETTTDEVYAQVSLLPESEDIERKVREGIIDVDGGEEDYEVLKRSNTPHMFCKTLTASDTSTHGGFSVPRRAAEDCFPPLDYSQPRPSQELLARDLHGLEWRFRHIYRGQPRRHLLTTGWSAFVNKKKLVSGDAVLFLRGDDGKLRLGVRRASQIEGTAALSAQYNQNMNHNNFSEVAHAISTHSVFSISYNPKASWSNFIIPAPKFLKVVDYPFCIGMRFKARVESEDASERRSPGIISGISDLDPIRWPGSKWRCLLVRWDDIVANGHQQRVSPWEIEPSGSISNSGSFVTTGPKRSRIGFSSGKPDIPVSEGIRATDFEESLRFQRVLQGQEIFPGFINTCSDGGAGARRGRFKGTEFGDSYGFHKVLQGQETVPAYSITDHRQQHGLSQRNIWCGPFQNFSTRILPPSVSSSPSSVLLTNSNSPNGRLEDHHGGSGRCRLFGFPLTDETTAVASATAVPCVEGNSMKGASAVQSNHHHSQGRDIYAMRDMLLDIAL


Columns and labels:
Assay in all cases: two-hybrid; S. cerevisiae AH109 co-transformed with pGBKT7-ARF (bait) and pGADT7-Aux/IAA (prey); growth on SD/-Ade-His-Leu-Trp against SD/-Leu/-Trp; at least 10 independent colonies; serial dilutions for strength
[1] = molecular target: T1, ARF7 (Arabidopsis thaliana)
[2] = molecular target: T2, ARF12 (Arabidopsis thaliana)
[3] = molecular target: T3, ARF3 (Arabidopsis thaliana)

Row | binding [1] | binding [2] | binding [3] | Binder
1 | binds | no binding | no binding | Aux/IAA31 (protein, UniProt Q8H174 1-158) MEVSNSCSSFSSSSVDSTKPSPSESSVNLSLSLTFPSTSPQREARQDWPPIKSRLRDTLKGRRLLRRGDDTSLFVKVYMEGVPIGRKLDLCVFSGYESLLENLSHMFDTSIICGNRDRKHHVLTYEDKDGDWMMVGDIPWDMFLETVRRLKITRPERY
2 | binds | no binding | no binding | Aux/IAA28 (protein, UniProt Q9XFM0 1-175) MEEEKRLELRLAPPCHQFTSNNNINGSKQKSSTKETSFLSNNRVEVAPVVGWPPVRSSRRNLTAQLKEEMKKKESDEEKELYVKINMEGVPIGRKVNLSAYNNYQQLSHAVDQLFSKKDSWDLNRQYTLVYEDTEGDKVLVGDVPWEMFVSTVKRLHVLKTSHAFSLSPRKHGKE
3 | binds | no binding | no binding | Aux/IAA3 (protein, UniProt Q38822 1-189) MDEFVNLKETELRLGLPGTDNVCEAKERVSCCNNNNKRVLSTDTEKEIESSSRKTETSPPRKAQIVGWPPVRSYRKNNIQSKKNESEHEGQGIYVKVSMDGAPYLRKIDLSCYKGYSELLKALEVMFKFSVGEYFERDGYKGSDFVPTYEDKDGDWMLIGDVPWEMFICTCKRLRIMKGSEAKGLGCGV
4 | binds | no binding | no binding | Aux/IAA18 (protein, UniProt O24408 1-267) MEGYSRNGEISPKLLDLMIPQERRNWFHDEKNSVFKTEEKKLELKLGPPGEEDDDESMIRHMKKEPKDKSILSLAGKYFSPSSTKTTSHKRTAPGPVVGWPPVRSFRKNLASGSSSKLGNDSTTSNGVTLKNQKCDAAAKTTEPKRQGGMFVKINMYGVPIGRKVDLSAHNSYEQLSFTVDKLFRGLLAAQRDFPSSIEDEKPITGLLDGNGEYTLTYEDNEGDKMLVGDVPWQMFVSSVKRLRVIKTSEISSALTYGNGKQEKMRR
5 | binds | no binding | no binding | Aux/IAA29 (protein, UniProt Q93WC4 1-251) MELDLGLSLSPHKSSKLGFNFDLNKHCAIEGAASCLGTEKLRFEATFGLGNVEENCYMPKQRLFALNGQPNEEDEDPLESESSIVYDDEEENSEVVGWPPVKTCMIKYGSYHHRHIRNHHHCPYHHRGRRITAMNNNISNPTTATVGSSSSSSISSRSSMYVKVKMDGVAIARKVDIKLFNSYESLTNSLITMFTEYEDCDREDTNYTFTFQGKEGDWLLRGDVTWKIFAESVHRISIIRDRPCAYTRCLF
6 | binds | no binding | no binding | Aux/IAA27 (protein, UniProt Q9ZSY8 1-305) MSVSVAAEHDYIGLSEFPTMEATTMSDKTKTRDNNNGLNFKATELRLGLPGSESPERVDSRFLALNKSSCPVSGAKRVFSDAINDSNKWVFSPGSTTATGDVGSGSGPRTSVVKDGKSTTFTKPAVPVKEKKSSATAPASKAQVVGWPPIRSFRKNSMASSQSQKPGNNSETEEAEAKSGPEQPCLYVKVSMEGAPYLRKIDLKTYKSYLELSSALEKMFSCFTIGQFGSHGGCGRDGLNESRLTDLLRGSEYVVTYEDKDSDWMLVGDVPWEMFICSCKKLRIMKSSEAIGLAPRVMEKCRSRN

More lines, now with the values behind:

Row | Binder | binding [1] | binding [2] | binding [3]
7 | Aux/IAA19 (protein, UniProt O24409 1-197) MEKEGLGLEITELRLGLPGRDVAEKMMKKRAFTEMNMTSSGSNSDQCESGVVSSGGDAEKVNDSPAAKSQVVGWPPVCSYRKKNSCKEASTTKVGLGYVKVSMDGVPYLRKMDLGSSQGYDDLAFALDKLFGFRGIGVALKDGDNCEYVTIYEDKDGDWMLAGDVPWGMFLESCKRLRIMKRSDATGFGLQPRGVDE | binds | no binding | no binding
8 | Aux/IAA20 (protein, UniProt O24410 1-175) MGRGRSSSSSSIESSSKSNPFGASSSTRNLSTDLRLGLSFGTSSGTQYFNGGYGYSVAAPAVEDAEYVAAVEEEEENECNSVGSFYVKVNMEGVPIGRKIDLMSLNGYRDLIRTLDFMFNASILWAEEEDMCNEKSHVLTYADKEGDWMMVGDVPWEMFLSTVRRLKISRANYHY | binds | no binding | no binding
9 | Aux/IAA16 (protein, UniProt O24407 1-236) MINFEATELRLGLPGGNHGGEMAGKNNGKRGFSETVDLKLNLSSTAMDSVSKVDLENMKEKVVKPPAKAQVVGWPPVRSFRKNVMSGQKPTTGDATEGNDKTSGSSGATSSASACATVAYVKVSMDGAPYLRKIDLKLYKTYQDLSNALSKMFSSFTIGNYGPQGMKDFMNESKLIDLLNGSDYVPTYEDKDGDWMLVGDVPWEMFVDSCKRIRIMKGSEAIGLAPRALEKCKNRS | binds | no binding | no binding
10 | Aux/IAA33 (protein, UniProt Q9FKM7 1-171) MNSFEPQSQDSLQRRFHQDNSTTQQPRDTTTPFIPKPASKNHNNSNSSSGAAGRSFQGFGLNVEDDLVSSVVPPVTVVLEGRSICQRISLDKHGSYQSLASALRQMFVDGADSTDDLDLSNAIPGHLIAYEDMENDLLLAGDLTWKDFVRVAKRIRILPVKGNTRQVKRNE | binds | no binding | no binding
11 | Aux/IAA26 (protein, UniProt Q8LAL2 1-269) MEGCPRNREIGPKLLDLIPQGRKWYQEDKNNTDQEKKLELRLGPPGGDEEDHSAIKKKNTEIRNIKKETEDKSFHCFNGNHFSPSNKTTSVPHISQKRTAPGPVVGWPPVRSFRKNLASTSSSKLGNESSHGGQINKSDDGEKQVETKKEGMFVKINMDGVPIGRKVDLNAYNSYEQLSFVVDKLFRGLLAAQRDISDGQGEEKPIIGLLDGKGEFTLTYEDNEGDKMLVGDVPWQMFVSSVKRLRVIKSSEISSALTFGCSKQEKMMH | binds | no binding | no binding
12 | Aux/IAA30 (protein, UniProt Q9M1R4 1-172) MGRGRSSSSSSIESSCKSNPFGVSSSNTRNLSTDLRLGLSFGSSSGQYYNGGDNHEYDGVGAAEEMMIMEEEEQNECNSVGSFYVKVNMEGVPIGRKIDLLSLNGYHDLITTLDYMFNASILWAEEEDMCSEKSHVLTYADKEGDWMMVGDVPWEMFLSSVRRLKISRAYHY | binds | no binding | no binding
